Test results taken from publication PMC4336329 (PLoS ONE, 2015).
Hit rate of the full screen: of about 310,000 compounds, about 14,000 (4.5%) showed an effect of 50% or more. The effect is printed as a negative number. This is one part of the list.

Molecular target: human ether-à-go-go-related gene (hERG) potassium channel (human, UniProt Q12809)
Assay: primary screen, population patch clamp on CHO cells stably expressing hERG
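Further: peak tail current of the secondary pulse compared with the same well before compound.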

Sequence of human ether-à-go-go-related gene (hERG) potassium channel (Q12809 whole entry, looked up): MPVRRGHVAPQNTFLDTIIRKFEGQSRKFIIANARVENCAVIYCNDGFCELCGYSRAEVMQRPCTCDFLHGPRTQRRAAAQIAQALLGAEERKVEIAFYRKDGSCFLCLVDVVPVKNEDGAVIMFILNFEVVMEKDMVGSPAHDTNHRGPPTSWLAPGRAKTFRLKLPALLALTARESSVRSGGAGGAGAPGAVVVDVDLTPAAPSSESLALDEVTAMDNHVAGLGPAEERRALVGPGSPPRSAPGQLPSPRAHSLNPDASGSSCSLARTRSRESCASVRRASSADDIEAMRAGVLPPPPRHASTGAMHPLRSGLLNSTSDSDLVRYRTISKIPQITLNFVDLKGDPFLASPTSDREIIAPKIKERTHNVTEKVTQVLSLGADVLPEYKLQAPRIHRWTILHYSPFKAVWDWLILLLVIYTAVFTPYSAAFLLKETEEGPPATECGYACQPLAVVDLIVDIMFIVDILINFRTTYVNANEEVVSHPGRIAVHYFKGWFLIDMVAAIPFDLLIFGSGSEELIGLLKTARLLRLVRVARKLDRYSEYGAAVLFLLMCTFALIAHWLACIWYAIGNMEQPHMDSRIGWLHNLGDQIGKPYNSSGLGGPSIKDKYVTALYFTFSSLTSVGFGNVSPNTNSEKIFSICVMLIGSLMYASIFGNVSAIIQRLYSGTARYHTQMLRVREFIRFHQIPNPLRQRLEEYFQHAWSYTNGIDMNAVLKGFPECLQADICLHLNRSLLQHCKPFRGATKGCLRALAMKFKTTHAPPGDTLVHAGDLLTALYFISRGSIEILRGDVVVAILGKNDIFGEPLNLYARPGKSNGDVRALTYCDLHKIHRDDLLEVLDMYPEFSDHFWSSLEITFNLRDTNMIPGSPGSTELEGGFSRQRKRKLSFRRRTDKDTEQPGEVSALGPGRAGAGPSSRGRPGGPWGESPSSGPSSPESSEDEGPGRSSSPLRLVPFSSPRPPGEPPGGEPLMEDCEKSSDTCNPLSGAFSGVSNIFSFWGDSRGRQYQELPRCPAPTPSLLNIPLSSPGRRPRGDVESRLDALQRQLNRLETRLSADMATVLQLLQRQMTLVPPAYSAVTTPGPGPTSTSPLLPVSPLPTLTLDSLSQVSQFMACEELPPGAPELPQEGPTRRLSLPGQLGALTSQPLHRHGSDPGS

SMILES | hERG current change (%, negative = inhibition) at 10uM [%]
COc1ccc(-c2csc3ncn(-c4cccc(C)c4)c(=O)c23)cc1OC | -19.6
Cc1ccnc(NS(=O)(=O)c2ccc(N3C(=O)c4c(Cl)c(Cl)c(Cl)c(Cl)c4C3=O)cc2)n1 | 0.778
O=C(c1ccncc1)N1CCN(CCc2ccccc2)CC1 | -50.8
COc1ccc(S(=O)(=O)N(C)CC(=O)N2CCCC2)cc1Cl | 19.6
CN(C)[C@@H]1C(=O)C(C(N)=O)=C(O)[C@@]2(O)C(=O)C3=C(O)c4c(O)ccc(Cl)c4[C@@H](O)[C@H]3C[C@@H]12.Cl | -18.4
COc1ccc(N2CCN(CCCn3c(=S)[nH]c4ncccc4c3=O)CC2)cc1 | -30.7
Cc1[nH]nc2cn[nH]c12 | 3.52
COc1ccc(CNc2ccc([N+](=O)[O-])cn2)cc1 | 7.49
O=C1c2ccccc2C(=O)N1COc1ccc(S(=O)(=O)N2CCOCC2)cc1[N+](=O)[O-] | -22.8
COc1cc(/C=N/NC(=O)CCC(=O)Nc2ccc(F)cc2)ccc1O | 18.2
COc1ccc(N(C(=O)c2ccco2)S(=O)(=O)c2ccccc2)cc1 | -44.3
CC(=O)NC1=NN(C(C)=O)C(c2ccccc2)S1 (centres unmarked) | 12.4
Cn1c(=O)c2c(nc(CN3CCCCC3)n2CCc2ccccc2)n(C)c1=O | -14.7
CCOc1ccc(C(=O)NC(=S)Nc2cccnc2)cc1[N+](=O)[O-] | -16.1
Cc1ccc(-c2nn(-c3ccccc3)cc2C2CC(c3cccs3)=NN2C(=O)CCCC(=O)O)cc1 (centres unmarked) | 4.96
Cc1ccccc1-n1c(-c2ccco2)nc2ccccc2c1=O | 1.78
COC(=O)Cc1cc(=O)n(-c2nc3ccccc3s2)[nH]1 | -0.387
C=CCNC(=S)NNC(=O)c1ccc(OCCC)cc1 | 11.7
COc1ccc(Cl)cc1C(=O)N/N=C/c1ccc(N2CCOCC2)cc1 | 10.6
Cc1cccc(OCCCC(=O)Nc2ccc(N(C)C)cc2)c1 | -5.54
CCn1nc(C(=O)OCC(=O)c2ccc3c(c2)OCCO3)c2ccccc2c1=O | -0.922
O=C(CCC1CCN(Cc2ccc(C#CCCO)cc2)CC1)NC1CC1 | -46.7

SMILES | hERG current change (%, negative = inhibition) at 10uM [%]
Cc1cc(C(F)(F)F)n2ncc(-c3cccc(Br)c3)c2n1 | 22.6
CC1(C)Oc2ccc(C(=O)NC3CC3)cc2N(CC(=O)N2CCOCC2)C1=O | 9.27
CCOC(=O)c1c(C)[nH]c(C(=O)COC(=O)C2CC2C)c1C (centres unmarked) | -2.21
CCOC(=O)N1CCN(C(=O)CN(C2CCCCC2)S(=O)(=O)c2ccc(C)cc2)CC1 | -28.9
S=c1[nH]nc(COc2ccccc2)n1/N=C/c1ccc(Cl)c(Cl)c1 | 26.4
CS(=O)(=O)N1CCCC(C(=O)Nc2ccc3c(c2)OCCO3)C1 (centres unmarked) | 23.6
O=C(N/C(=C\c1ccco1)C(=O)N1CCCC1)c1ccccc1 | 1.23
O=C(NCCc1ccccc1)c1ccc(-c2ccc(F)cc2)o1 | -9.42
Br.Cc1nc(C)c(-c2csc(Nc3cccc(O)c3)n2)s1 | 6.25
COCCCNCC(=O)c1c(N)n(Cc2ccccc2)c(=O)n(C)c1=O.O=C(O)C(=O)O | -20.1
COc1ccc(C2=NOC(C(=O)Nc3ccc(C)cc3)C2)cc1OC (centres unmarked) | -8.68
COc1cc(C2CC(=O)Nc3c2c(=O)nc2c(C)cccn32)cc(OC)c1OC (centres unmarked) | 18.9
O=[N+]([O-])c1cccc(NC(=S)N2CCc3ccccc32)c1 | -5.19
Cc1cc(-c2ccc(Cl)cc2)n2ncnc2n1 | -6.99
Cn1ccnc1SCC(=O)c1ccc([N+](=O)[O-])cc1 | -14.5
O=C(O)c1ccc(Cl)c(S(=O)(=O)N2CCC(Cc3ccccc3)CC2)c1 | 22.5
Cc1ccc(N(CC(=O)Nc2ccc(C)cc2C)S(=O)(=O)N2CCCC2)cc1 | -28.3
O=C(Cn1nnc2ccccc21)Nc1ccccc1[N+](=O)[O-] | 4.51
CCN(C(=O)COC(=O)c1cccnc1Nc1ccccc1F)C1CCS(=O)(=O)C1 (centres unmarked) | -9.99
CCOC(=O)c1sc(=S)n(-c2cccc(C(F)(F)F)c2)c1SC | -4.41
COc1cccc(-c2c(C(=O)N/N=C/c3cccnc3)nnn2-c2nonc2N)c1 | 14.8
COc1ccc(NC(=O)c2cccc(Cl)c2)c[n+]1[O-] | 17.1
